# In PubChem BioAssay AID1645887 (National Center for Advancing Translational Sciences (NCATS), 2021):
# “And” between values parts separate entries of the source, which are not always exact repeats. Equal values may be shown once. Among all 16,000 compounds or so, about 40 (0.2%) were called active. The inconclusive results got no clear call from the source; some entries with a clear call stand among them for comparison. Calls follow the shape of the dose curve; as a rule, active = well fitted activation curve with a large enough effect; inconclusive = small, poorly fitted or top-dose-only effect, or another doubt; inactive = no such curve, though single readings can be large or run the other way. Potencies of inconclusive entries are left out as doubtful fits.
# Biological target: Rap guanine nucleotide exchange factor 4 (Homo sapiens) (UniProt Q8WZA2)
# Test: Validation qHTS for agonist of cAMP-regulated guanine nucleotide exchange factor 4 (EPAC2);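 as to activation: exchange makes BODIPY-GDP fluorescence drop when released from Rap1B; series mostly up to about 150 µM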
# Details: EPAC2 Rap1B BODIPY-GDP exchange, fluorescence; activation: hits give high values
# Summary of the method: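 Fluorescent exchange assay: 100 nM EPAC2 with 250 nM RAP1B-BODIPY-GDP and 50 uM GDP; compound added, 5 min at room temperature, then read (ex 480/em 540 nm) every 5 min for 30 min. Normalized to 6.5 mM cAMP agonist control.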
# % is scaled to controls: 0 for no effect and ±100 for the full control effect; potency is read from the fitted curve at half-maximal effect; tags tell the direction and shape of the fitted curve.
# Chain of UniProt Q8WZA2 (Q8WZA2 whole entry, looked up): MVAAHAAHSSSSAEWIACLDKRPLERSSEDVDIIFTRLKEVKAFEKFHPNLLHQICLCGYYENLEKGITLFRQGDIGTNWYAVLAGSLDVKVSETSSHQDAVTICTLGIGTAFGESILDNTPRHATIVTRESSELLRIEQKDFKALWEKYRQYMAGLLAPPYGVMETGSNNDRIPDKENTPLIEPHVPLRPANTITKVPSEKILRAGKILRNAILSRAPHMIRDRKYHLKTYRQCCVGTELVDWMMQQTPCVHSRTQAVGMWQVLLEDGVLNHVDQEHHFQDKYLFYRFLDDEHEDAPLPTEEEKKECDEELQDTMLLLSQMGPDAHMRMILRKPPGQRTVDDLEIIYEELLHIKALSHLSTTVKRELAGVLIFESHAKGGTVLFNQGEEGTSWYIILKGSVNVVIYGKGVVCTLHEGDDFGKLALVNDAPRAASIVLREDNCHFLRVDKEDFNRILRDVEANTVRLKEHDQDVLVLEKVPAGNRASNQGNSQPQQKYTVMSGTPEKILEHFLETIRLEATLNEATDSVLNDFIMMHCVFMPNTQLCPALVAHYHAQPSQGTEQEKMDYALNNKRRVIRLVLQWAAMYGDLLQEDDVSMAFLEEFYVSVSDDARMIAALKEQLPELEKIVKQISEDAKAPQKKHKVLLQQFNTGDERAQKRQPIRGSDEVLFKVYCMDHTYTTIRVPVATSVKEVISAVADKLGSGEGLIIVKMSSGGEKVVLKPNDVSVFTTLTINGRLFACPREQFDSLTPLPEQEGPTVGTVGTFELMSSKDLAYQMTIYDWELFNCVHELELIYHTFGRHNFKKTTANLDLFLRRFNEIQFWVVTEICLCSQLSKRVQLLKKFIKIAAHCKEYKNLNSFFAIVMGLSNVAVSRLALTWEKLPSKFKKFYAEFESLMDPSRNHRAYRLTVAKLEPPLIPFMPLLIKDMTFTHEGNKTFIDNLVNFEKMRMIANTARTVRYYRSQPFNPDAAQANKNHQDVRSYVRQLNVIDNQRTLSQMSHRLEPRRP
Compound,Potency,activation
O=c1c(-c2cc(F)cc(F)c2)nc2cnc(N3CCNCC3)nc2n1Cc1cccs1,"inconclusive [activator, full curve]",–
C/C1=C2N=C(/C=C3N=C(/C(C)=C4\[N-]C(C(CC(N)=O)C4(C)CCC(=O)NCC(C)OP(=O)([O-])OC4C(CO)OC(n5cnc6cc(C)c(C)cc65)C4O)C4(C)N=C1C(CCC(N)=O)C4(C)CC(N)=O)C(CCC(N)=O)C\3(C)C)C(CCC(N)=O)C/2(C)CC(N)=O.[CH3-].[Co+3] (stereo unspecified),"inconclusive [activator, full curve, poor fit]",–
C[N+]1(Cc2ccccc2)CCC(C(=O)OCC2CCCC2)CC1 (stereo unspecified),–,inactive: -12.2%
COc1ccc(/C=C/C(=O)c2cccs2)c(OC)c1,"inconclusive [activator, partial curve]",–
CCCCCCC[n+]1ccc(/C=C/c2c[nH]c3ccccc23)cc1,"inconclusive [activator, partial curve, poor fit]",–
OCCN(CCO)c1ccc(/C=C/c2ccnc3ccccc23)cc1,–,inactive: -44.7%
Nc1ncnc2c1nc(Br)n2[C@H]1O[C@H]2COP(=O)(O)O[C@H]2[C@@H]1O,"inconclusive [activator, full curve, poor fit]",–
COc1cccc(Nc2ncc3nc(-c4cccs4)c(=O)n(-c4ccccc4)c3n2)c1,active: 50.1 µM,–
NC1CONC1=O (stereo unspecified),"inconclusive [activator, single point]",–
C[C@]12CCC(=O)C=C1CCC1C3CC[C@](O)(C(=O)CO)[C@@]3(C)CC3OC312 (stereo partly specified),–,inactive: -18.8%
CN(C)c1ncc2nc(-c3cccs3)c(=O)n(CCC#N)c2n1,"inconclusive [activator, full curve]",–
O=C(NNCS(=O)(=O)O)c1ccncc1,"inconclusive [activator, single point]",–
Nc1ncnc2c1nc(Br)n2[C@@H]1O[C@H]2COP(=O)(O)O[C@@H]2[C@@H]1O,"inconclusive [activator, full curve, poor fit]",–
COc1cccc2c1C(=O)c1c(O)c3c(c(O)c1C2=O)C[C@@](O)(C(C)=O)C[C@@H]3O[C@H]1C[C@H](N)[C@H](O)[C@H](C)O1,"inconclusive [activator, partial curve, poor fit]",–
COC(=O)C1C(O)CC[C@@H]2CN3CCc4c([nH]c5ccccc45)C3C[C@@H]12 (stereo partly specified),–,inactive: -7.23% and inactive: -17.2%
Nc1ncnc2c1nc(Br)n2C1OC2COP(=O)(O)O[C@@H]2C1O (stereo partly specified),"inconclusive [activator, full curve, poor fit]",–
